# Hit rate of the full screen: of about 39,000 compounds, about 220 (0.56%) showed activity. The list shows a part of the results.
# Tested on: Escherichia coli K-12 BW25113
# Test: relative growth (OD600 normalised to plate interquartile mean) (fraction); higher = less growth inhibition, active = 0.2 or less
# Settings: 50 µM; LB; incubation time: overnight (16-24 h)
# 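Note: static incubation at 37 °C against the wild-type strain, values averaged over two biological replicates.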
row,Structure (SMILES),relative growth
1,CSc1ccc(Sc2ccc(SC)cc2)cc1,inactive: 0.923
2,O=C(C[C@@H]1C[C@H]2c3cc(NC(=O)Cc4ccncc4)ccc3O[C@H]2[C@@H](CO)O1)NCCN1CCCCC1,inactive: 0.982
3,C[C@@H]1CN([C@H](C)CO)C(=O)CCCn2nncc2CO[C@H]1CN(C)S(=O)(=O)c1ccc2ccccc2c1,inactive: 0.995
4,C[C@H](CO)N1C[C@H](C)[C@@H](CN(C)C(=O)Nc2cccc3ccccc23)OCCCC[C@H](C)Oc2ccc(NS(=O)(=O)c3ccc(F)cc3)cc2C1=O,inactive: 1.02
5,CNC[C@H]1Oc2cc(C#CCN(C)C)ccc2S(=O)(=O)N([C@@H](C)CO)C[C@@H]1C,inactive: 1.03
6,C=c1cc(C)ccc1=C1NN=C(NC(C)=O)O1,inactive: 0.968
7,COc1ccc(S(=O)(=O)N(C)C[C@H]2OCCCC[C@@H](C)Oc3ccc(NC(=O)C4CCCCC4)cc3C(=O)N([C@H](C)CO)C[C@H]2C)cc1,inactive: 1.01
8,C[C@H]1CCCCO[C@@H](CN(C)C(=O)NC2CCCCC2)[C@@H](C)CN([C@@H](C)CO)C(=O)c2cc(NS(=O)(=O)c3ccc(Cl)cc3)ccc2O1,inactive: 1.02
9,C[C@@H]1CCCCO[C@@H](CN(C)CC2CCCCC2)[C@@H](C)CN([C@@H](C)CO)C(=O)c2cc(NC(=O)C3CCCCC3)ccc2O1,inactive: 0.972
10,COc1ccc(S(=O)(=O)N[C@H]2CC[C@H](CC(=O)N3CCC(Cc4ccccc4)CC3)O[C@@H]2CO)cc1,inactive: 0.999
11,C[C@H](CO)N1C[C@H](C)[C@H](CN(C)S(=O)(=O)c2ccc(F)cc2)Oc2c(NC(=O)C3CC3)cccc2C1=O,inactive: 1.01
12,C[C@H]1CN([C@@H](C)CO)C(=O)c2cc(NC(=O)C3CCCCC3)ccc2O[C@H]1CN(C)C(=O)Nc1ccc(C(F)(F)F)cc1,inactive: 1.01
13,Cn1c(=O)c2c(NCCc3ccc(S(N)(=O)=O)cc3)ccnc2n(C)c1=O,inactive: 1.03
14,C[C@@H]1CCCCO[C@@H](CN(C)Cc2ccc3c(c2)OCO3)[C@H](C)CN([C@@H](C)CO)C(=O)c2cc(NS(=O)(=O)c3ccc(F)cc3)ccc2O1,inactive: 0.99
15,O=C(CCCCCNC(=O)OCCCCO[C@H]1C[C@@H](c2ccc(C(F)(F)F)cc2)C=C(C(=O)N2CCN(Cc3ccccc3)CC2)O1)NO,inactive: 1
16,c1ccc2nc(-c3cn[nH]c3)ccc2c1,inactive: 0.973
17,C[C@H](CO)N1C[C@H](C)[C@@H](CN(C)Cc2ccc(Oc3ccccc3)cc2)Oc2c(NC(=O)Nc3cccc4ccccc34)cccc2C1=O,inactive: 0.915
18,CO[C@H]1CN(C)C(=O)c2ccc(NC(=O)C3CCOCC3)cc2OC[C@H](C)N(Cc2cccnc2)C[C@@H]1C,inactive: 1.01
19,O=C1CN(S(=O)(=O)Cc2ccccc2)C[C@@H]2[C@H](c3ccc(C#Cc4ccc(F)cc4)cc3)[C@@H](CO)N12,inactive: 1.02
20,C[C@@H]1CCCCO[C@H](CN(C)C(=O)Nc2ccc(F)cc2)[C@@H](C)CN([C@H](C)CO)C(=O)c2cc(NS(=O)(=O)c3ccc(F)cc3)ccc2O1,inactive: 1.02

row,Structure (SMILES),relative growth
1,C[C@@]1(F)[C@H](O)[C@@H](CO)O[C@H]1n1ccc(N)nc1=O,inactive: 0.994
2,O=C(NN1CCCCC1)c1nn(-c2ccc(Cl)cc2Cl)c(-c2ccc(C#Cc3ccc(C(F)(F)F)cc3)s2)c1CNS(=O)(=O)N1CCCC1,inactive: 1.03
3,C[C@@H]1CCCCO[C@@H](CN(C)Cc2ccccc2)[C@@H](C)CN([C@H](C)CO)C(=O)c2cc(NC(=O)Nc3cccc4ccccc34)ccc2O1,inactive: 1.04
4,C[C@H](CO)N1C[C@H](C)[C@@H](CN(C)C(=O)Nc2cccc(Cl)c2Cl)OCc2ccccc2-c2ccccc2C1=O,inactive: 0.987
5,C[C@H]1CCCCO[C@@H](CN(C)C(=O)CCCN(C)C)[C@@H](C)CN([C@@H](C)CO)C(=O)c2cc(NC(=O)Nc3ccc(F)cc3)ccc2O1,inactive: 0.98
6,C=CC[C@H](CC(=O)NCCO)C(=O)N[C@@H](COC(=O)[C@@H](CC=C)CC(=O)OC(C)(C)C)Cc1ccccc1,inactive: 0.957
7,CC(C)CC#Cc1ccc2c(c1)O[C@@H](CN(C)C(=O)c1ccccn1)[C@H](C)CN([C@H](C)CO)S2(=O)=O,inactive: 1.02
8,CNC[C@@H]1Oc2c(NS(=O)(=O)c3cn(C)cn3)cccc2C(=O)N([C@H](C)CO)C[C@@H]1C,inactive: 0.973
9,C[C@H]1CN([C@@H](C)CO)C(=O)c2cccc(NC(=O)CCCCCC(=O)Nc3ccccc3N)c2O[C@H]1CN(C)Cc1ccc(-c2ccccc2)cc1,inactive: 1.01
10,COc1ccc(C=CC(=O)c2cc(O)ccc2O)cc1,inactive: 0.897
11,COc1ccc(S(=O)(=O)N(C)C[C@H]2Oc3ccc(NC(=O)CCC(F)(F)F)cc3CC(=O)N([C@@H](C)CO)C[C@H]2C)cc1,inactive: 1.01
12,COCC#Cc1cnc2c(c1)C(=O)N([C@@H](C)CO)C[C@@H](C)[C@H](CN(C)C(=O)CN1CCOCC1)O2,inactive: 1.02
13,C[C@H]1CCCCO[C@H](CN(C)C(=O)Nc2ccc(F)cc2)[C@@H](C)CN([C@@H](C)CO)C(=O)c2cc(NC(=O)Cc3ccccc3)ccc2O1,inactive: 1.02
14,Cc1noc(C)c1NC(=O)Nc1ccc2c(c1)CC(=O)N([C@@H](C)CO)C[C@@H](C)[C@@H](CN(C)C(=O)Nc1cccc3ccccc13)O2,inactive: 0.99
15,C[C@@H]1CCCCO[C@H](CN(C)S(C)(=O)=O)[C@@H](C)CN([C@@H](C)CO)C(=O)c2cc(NC(=O)Nc3ccc(C(F)(F)F)cc3)ccc2O1,inactive: 1
16,COC1OC2OC3(C)CCC4C(C)CCC(C1C)C24OO3 (centres undefined),inactive: 0.441
17,CCCN(C)C[C@@H]1OCCCC[C@@H](C)Oc2ccc(NC(=O)Nc3c(C)noc3C)cc2C(=O)N([C@H](C)CO)C[C@@H]1C,inactive: 1.01
18,CC(C)(C)c1cccc(CN)c1,inactive: 0.934
19,COc1ccc(CN(C)C[C@H]2OCCCC[C@H](C)Oc3ccc(NC(=O)CCC(F)(F)F)cc3C(=O)N([C@@H](C)CO)C[C@H]2C)cc1,inactive: 1.01

# Reference: the supplement of paper PMC9446081
